Results from PMC4336329 (PLoS ONE, 2015).
About 14,000 (4.5%) of roughly 310,000 compounds showed an effect of 50% or more. Effects have a minus sign here. This is one part of the list.

Each compound was assayed against human ether-à-go-go-related gene (hERG) potassium channel (human, UniProt Q12809) (assay: primary screen, population patch clamp on CHO cells stably expressing hERG).
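Note: peak tail current of the secondary pulse compared with the same well before compound.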

Sequence of human ether-à-go-go-related gene (hERG) potassium channel (Q12809 whole entry, looked up): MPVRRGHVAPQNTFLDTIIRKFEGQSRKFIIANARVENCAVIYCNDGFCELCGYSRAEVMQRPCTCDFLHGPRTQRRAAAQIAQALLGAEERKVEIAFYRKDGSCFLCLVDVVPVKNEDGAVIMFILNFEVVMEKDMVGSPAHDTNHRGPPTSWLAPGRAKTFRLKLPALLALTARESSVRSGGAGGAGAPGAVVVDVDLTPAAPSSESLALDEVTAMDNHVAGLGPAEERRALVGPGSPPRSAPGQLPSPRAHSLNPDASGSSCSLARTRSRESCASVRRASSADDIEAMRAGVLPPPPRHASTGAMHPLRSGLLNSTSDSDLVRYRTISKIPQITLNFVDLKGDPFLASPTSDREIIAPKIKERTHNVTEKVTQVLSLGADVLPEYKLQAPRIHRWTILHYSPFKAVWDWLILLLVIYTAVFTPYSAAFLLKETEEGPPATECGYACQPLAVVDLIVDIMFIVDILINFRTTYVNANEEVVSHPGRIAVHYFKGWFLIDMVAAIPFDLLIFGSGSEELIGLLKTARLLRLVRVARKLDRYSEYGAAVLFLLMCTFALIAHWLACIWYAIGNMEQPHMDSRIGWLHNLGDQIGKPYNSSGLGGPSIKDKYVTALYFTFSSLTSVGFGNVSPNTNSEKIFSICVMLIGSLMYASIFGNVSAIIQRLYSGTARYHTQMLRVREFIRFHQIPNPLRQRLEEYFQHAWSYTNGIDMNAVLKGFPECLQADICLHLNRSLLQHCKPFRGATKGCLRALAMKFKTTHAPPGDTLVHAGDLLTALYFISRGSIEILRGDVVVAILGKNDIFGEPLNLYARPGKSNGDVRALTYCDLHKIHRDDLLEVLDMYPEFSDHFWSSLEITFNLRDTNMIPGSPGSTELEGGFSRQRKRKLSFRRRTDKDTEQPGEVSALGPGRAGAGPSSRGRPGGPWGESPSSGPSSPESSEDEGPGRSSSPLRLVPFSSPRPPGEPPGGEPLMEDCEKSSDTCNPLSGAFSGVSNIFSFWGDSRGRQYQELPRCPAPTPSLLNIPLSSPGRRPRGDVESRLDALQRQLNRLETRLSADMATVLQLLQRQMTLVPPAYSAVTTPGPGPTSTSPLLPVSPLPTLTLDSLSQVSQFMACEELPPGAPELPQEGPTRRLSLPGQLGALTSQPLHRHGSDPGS

First: O=C(O)CCC1OC(=O)C(O)=C1c1ccccc1 (stereo not shown)
Second: NC(=O)Cc1nc(-c2ccccc2)cs1
The “hERG current change (%, negative = inhibition) at 10uM” value of the first is higher: 15.6% for the first, 12.5% for the second.

Going from `Cc1cccc(NC(=O)c2ccc(COc3ccccc3[N+](=O)[O-])o2)n1` to `O=C(Cc1nnc(NC(=O)c2cccc([N+](=O)[O-])c2)s1)NCc1ccccc1`, the “hERG current change (%, negative = inhibition) at 10uM” value rises from -4.45% to 15.2%.

Compared with `O=C(Cc1cccc(C(F)(F)F)c1)N1CCN(CC(=O)N2CCCC2)CC1`, `Cc1cc(Cl)ccc1OCCCC(=O)N1CCN(C(=O)c2ccco2)CC1` is lower in “hERG current change (%, negative = inhibition) at 10uM” value: -5.15% for the first, -74.5% for the second.

First: CCCc1nnc(SCc2ccc(C(=O)OC)o2)n1N
Second: CCOc1cc(C(=O)OCC(=O)Nc2cc(C)on2)ccc1OCC(C)C
The “hERG current change (%, negative = inhibition) at 10uM” value of the first is lower: 2.57% for the first, 3.71% for the second.

First: Cc1c(C(=O)N2CCC2)oc2ccc(Br)cc12
Second: Cc1cccnc1NC(=O)COc1ccc2oc3c(c2c1)CCCC3
The “hERG current change (%, negative = inhibition) at 10uM” value of the first is lower: -41.8% for the first, 9.39% for the second.

Going from `Cc1cc(=O)nc2c3ccccc3n(CC(=O)NCCCN3CCCCC3C)n12` (stereo not shown) to `Cc1cc(C)c2c(=O)n(CC(=O)NCCCN3CCN(c4ccccc4F)CC3)sc2n1`, the “hERG current change (%, negative = inhibition) at 10uM” value falls from 21% to -55.3%.

First: CC(CCc1ccccc1)NC(=O)C1CCN(S(=O)(=O)N2CCCCC2)CC1 (stereo not shown)
Second: Cc1nc2ccc(S(=O)(=O)NCC(=O)N3CCC(N4CCCCC4)CC3)cc2s1
The “hERG current change (%, negative = inhibition) at 10uM” value of the first is higher: -23.3% for the first, -44.2% for the second.

First: COC(=O)c1[nH]c2ccc(C)cc2c1NC(=O)CN1CCN(c2ccccc2)CC1
Second: COc1ccc(NC(=O)CN2CCC(Cc3ccccc3)CC2)cc1S(=O)(=O)N1CCOCC1
The “hERG current change (%, negative = inhibition) at 10uM” value of the first is higher: -13.7% for the first, -25.3% for the second.

First: COc1ccc(N2C(=O)C3CCCN3C2c2ccccc2Cl)cc1 (stereo not shown)
Second: COc1ccc(-n2cc(CNCC3CC(=O)N(C4CC4)C3)c(-c3ccccc3Cl)n2)cc1 (stereo not shown)
The “hERG current change (%, negative = inhibition) at 10uM” value of the first is higher: -1.95% for the first, -13.4% for the second.

Compared with `CC(C)C(NS(=O)(=O)c1ccc2c(c1)C(C)(C)C(=O)N2C)C(=O)NCc1ccccc1Cl` (stereo not shown), `CC(=O)N1CCOc2ccc(S(=O)(=O)NCCc3ccccc3)cc21` is higher in “hERG current change (%, negative = inhibition) at 10uM” value: -2.2% for the first, 2.09% for the second.

Compared with `COc1ccccc1N1CCN(C(=O)c2ccc(N3CCCC3=O)cc2)CC1`, `CC(C)(C)c1ccc(C(=O)N2CCC(NC(=O)c3ccccc3)CC2)cc1` is lower in “hERG current change (%, negative = inhibition) at 10uM” value: 0.8% for the first, -1.48% for the second.

Compared with `COC(=O)c1ccc(-c2ccc(/C=N/NC(=O)CC3(C)OCCCO3)o2)cc1`, `CC(=O)c1cccc(NC(=S)NC(=O)c2ccc(C)cc2)c1` is higher in “hERG current change (%, negative = inhibition) at 10uM” value: -11.1% for the first, 22.4% for the second.

Compared with `COc1ccc(C(C)NC(=S)NCc2ccc(F)cc2)cc1OC` (stereo not shown), `COc1ccc(CN(C)S(=O)(=O)c2nnc(NC(=O)c3cccc(C)c3)s2)cc1OC` is higher in “hERG current change (%, negative = inhibition) at 10uM” value: -5.63% for the first, 12.9% for the second.

Going from `COc1ccc(OC)c(C(=O)Cn2nnc(-c3ccc(N4CCOCC4)cc3)n2)c1` to `COc1ccc(OC)c(NC(=O)C2CCCN(S(=O)(=O)c3ccc(-n4cnnn4)cc3)C2)c1` (stereo not shown), the “hERG current change (%, negative = inhibition) at 10uM” value falls from 16.4% to -12.5%.

First: CC(C)CCn1c(CN(C)Cc2ccccc2)nc2c1c(=O)n(C)c(=O)n2C
Second: CCn1c(NCc2ccccn2)nc2c1c(=O)n(C)c(=O)n2C
The “hERG current change (%, negative = inhibition) at 10uM” value of the first is lower: -43.9% for the first, -11% for the second.

Compared with `O=C1CC(c2ccccc2)Sc2nc(-c3ccccc3)c(-c3ccccc3)n21` (stereo not shown), `O=C(CNC(=O)c1ccccc1)OCC(=O)N1c2ccccc2Sc2ccccc21` is higher in “hERG current change (%, negative = inhibition) at 10uM” value: 3.84% for the first, 13.4% for the second.

Going from `COc1ccc(N2CCC(CNC(=S)Nc3cc(C)cc(C)c3)C2)cc1` (stereo not shown) to `COc1ccc(NC(=O)CSc2nc(C3CC3)nc3ccccc23)cc1`, the “hERG current change (%, negative = inhibition) at 10uM” value rises from -0.999% to 5.62%.

First: CCNC(=O)N1C(CC(=O)OCC)C(=O)NC2CCCCC21 (stereo not shown)
Second: CCOC(=O)c1cnn(CCOC(=O)C2CC2)c1NC(=O)C1CC1
The “hERG current change (%, negative = inhibition) at 10uM” value of the first is higher: 8.23% for the first, -1.17% for the second.

First: COC(=O)c1cccc(NC(=O)CCCOc2ccccc2)c1
Second: COc1cccc(NC(=O)Cn2c(=O)n(-c3ccccc3)c(=O)c3sccc32)c1
The “hERG current change (%, negative = inhibition) at 10uM” value of the first is lower: -9.19% for the first, 7.24% for the second.

First: S=C(NCC1CCCO1)n1nnc2ccccc21 (stereo not shown)
Second: CC(Sc1nn(-c2ccc(Cl)cc2)c(=S)s1)C(=O)NCC1CCCO1 (stereo not shown)
The “hERG current change (%, negative = inhibition) at 10uM” value of the first is higher: -4.52% for the first, -15.1% for the second.

Going from `COc1cccc(CNc2cccc(C(F)(F)F)c2)c1O` to `COc1ccc(C2(CNC(=O)c3cccc([N+](=O)[O-])c3)CCCCC2)cc1OC`, the “hERG current change (%, negative = inhibition) at 10uM” value falls from 0.746% to -29.4%.

First: CSc1nncc(=O)[nH]1
Second: CSc1nc(C)c(Cc2ccccc2)c(=O)[nH]1
The “hERG current change (%, negative = inhibition) at 10uM” value of the first is lower: -2.32% for the first, 30.6% for the second.

Compared with `COc1ccc(OC)c(NC(=O)CSc2nc3nc(C)cc(C)n3n2)c1`, `CCN(CC)C(=O)CC(c1ccc2c(c1)OCO2)c1c(O)cc(OC)cc1OC` (stereo not shown) is higher in “hERG current change (%, negative = inhibition) at 10uM” value: -8.1% for the first, -2.77% for the second.

First: Cc1ccc(C)c(OCc2nnc(N)s2)c1
Second: COc1cccc(C(=O)Nc2c(C)n[nH]c2C)c1
The “hERG current change (%, negative = inhibition) at 10uM” value of the first is higher: 11.3% for the first, -0.143% for the second.

Going from `Cc1cccc(NS(=O)(=O)c2cc3c4c(c2)C(C)C(=O)N4CCC3)c1` (stereo not shown) to `O=C1CCCN1CC(O)CS(=O)(=O)Cc1ccccc1Cl` (stereo not shown), the “hERG current change (%, negative = inhibition) at 10uM” value rises from 5.81% to 18.7%.

Compared with `CN(CC(=O)NCc1cccs1)S(=O)(=O)c1cccc2cccnc12`, `Cn1nc(C(=O)NCc2cccnc2)c2ccccc2c1=O` is lower in “hERG current change (%, negative = inhibition) at 10uM” value: 8.53% for the first, -1.75% for the second.

Going from `C/C(=N\OC(=O)NC1CCCCC1)c1sc(-c2ccccc2)nc1C` to `Cn1ncc([N+](=O)[O-])c1C(=O)Nc1ccc(C2CCCCC2)cc1`, the “hERG current change (%, negative = inhibition) at 10uM” value rises from -19.5% to 13.6%.

Going from `O=C1NC(=O)C(=O)N1` to `O=C1CCCN1C(=O)c1cncc(Br)c1`, the “hERG current change (%, negative = inhibition) at 10uM” value falls from 0.783% to -38.4%.

Compared with `O=C1CCN(Cc2ccc([N+](=O)[O-])cc2)CCN1[C@H](CO)Cc1ccccc1`, `OCCC1CN(Cc2ccccc2O)CCN1CCc1ccccc1` (stereo not shown) is lower in “hERG current change (%, negative = inhibition) at 10uM” value: -29.5% for the first, -35.6% for the second.

Compared with `CCCc1cc(=O)oc2cc(C)cc(OC(C)C(=O)N[C@@H](Cc3c[nH]c4ccccc34)C(=O)O)c12` (stereo partly shown), `COc1ccccc1NC(=O)N(Cc1ccco1)Cc1cc2ccc(C)c(C)c2[nH]c1=O` is lower in “hERG current change (%, negative = inhibition) at 10uM” value: 15.2% for the first, 8.85% for the second.

Going from `CN(C)S(=O)(=O)n1cnc([C@H]2c3c(ncn3Cc3ccccc3)C[C@H]3COC(=O)[C@@H]32)c1` to `O=C(NC(=S)N(CCO)Cc1ccccc1)c1ccc(S(=O)(=O)N2CCCC2)cc1`, the “hERG current change (%, negative = inhibition) at 10uM” value rises from -4.15% to 18%.

Going from `CCCN(CCC)S(=O)(=O)c1ccc(C(=O)O)cc1` to `Cc1ccc(S(=O)(=O)NC(=O)NCC2CCN(S(=O)(=O)c3ccccc3)CC2)cc1`, the “hERG current change (%, negative = inhibition) at 10uM” value rises from -5.57% to 7.31%.

First: NC(=O)c1ccsc1NC(=O)CN1C(=O)C2CC=CCC2C1=O (stereo not shown)
Second: O=C(COC(=O)CN1C(=O)c2ccccc2C1=O)Nc1ccccc1[N+](=O)[O-]
The “hERG current change (%, negative = inhibition) at 10uM” value of the first is higher: 9.87% for the first, 1.48% for the second.

Compared with `Nc1ccc(C(=O)OCC(=O)Nc2cc([N+](=O)[O-])ccc2F)cc1`, `CN(CC(=O)Nc1ccc(Cl)cc1)C(=O)Cc1c(F)cccc1Cl` is higher in “hERG current change (%, negative = inhibition) at 10uM” value: 9.82% for the first, 11.2% for the second.

First: COc1cc2oc3cc(C)oc(=O)c3c2cc1OC
Second: COc1cc(-c2nc3c4ccccc4nc(=S)n3[nH]2)cc(OC)c1OC
The “hERG current change (%, negative = inhibition) at 10uM” value of the first is lower: -16.9% for the first, 28.9% for the second.

Going from `C=CCn1c(SCC#N)nc2ccccc2c1=O` to `Cc1ccc(O)c(CCc2ccccc2)n1.Cl`, the “hERG current change (%, negative = inhibition) at 10uM” value rises from 2.11% to 11.6%.

First: COc1ccc2c(=O)c(-c3ccccc3)coc2c1
Second: Cn1c(N)c(C(=O)Nc2ccc(-c3ccccc3)cc2)sc1=S
The “hERG current change (%, negative = inhibition) at 10uM” value of the first is lower: 8.57% for the first, 12.2% for the second.

First: O=C(CN1CCOCC1)Nc1ncccn1
Second: CSc1ccc(CNCCN2CCOCC2)cc1.Cl
The “hERG current change (%, negative = inhibition) at 10uM” value of the first is higher: 18.1% for the first, -8.98% for the second.

Going from `O=C(COC(=O)c1cccnc1Cl)NCC1CCCO1` (stereo not shown) to `O=C(NCc1ccco1)C(=O)c1cn(CC(=O)N2CCCCCC2)c2ccccc12`, the “hERG current change (%, negative = inhibition) at 10uM” value falls from 10.8% to -7.86%.

Compared with `CSC(=S)N/N=C(\C)c1ccc(Br)cc1`, `NC(=O)COC(=O)/C=C/c1cccc(Br)c1` is lower in “hERG current change (%, negative = inhibition) at 10uM” value: 33% for the first, -12.7% for the second.

First: CCOc1cc(C(=O)Nc2cc(=O)n(C)c(=O)n2C)cc(OCC)c1OCC
Second: COc1cc(OC)c(CN2CCC(CO)(CCOc3ccccc3)CC2)c(OC)c1
The “hERG current change (%, negative = inhibition) at 10uM” value of the first is higher: -1.02% for the first, -86.4% for the second.

First: Cc1cc(C)n(-c2nc3nonc3nc2Nc2cccc(C)c2C)n1
Second: Cc1ccccc1OCC(=O)N/N=C/c1cn(C)c2ccccc12
The “hERG current change (%, negative = inhibition) at 10uM” value of the first is higher: 3.08% for the first, 0.304% for the second.

First: C=C(C(=O)c1ccccc1)C(C)CC(=O)c1ccccc1 (stereo not shown)
Second: CC(=O)NC(NC(=S)Nc1ccc(N=Nc2ccccc2)cc1)C(Cl)(Cl)Cl (stereo not shown)
The “hERG current change (%, negative = inhibition) at 10uM” value of the first is lower: -0.276% for the first, 19.6% for the second.

Going from `Clc1ccc(/C=C/c2nc3ccccc3[nH]2)cc1` to `Clc1ccc(-c2cnc3n2CCC3)cc1`, the “hERG current change (%, negative = inhibition) at 10uM” value falls from -15.7% to -23.1%.

Going from `O=C(O)c1c(N2CCCCC2)ccc([N+](=O)[O-])c1N1CCCCC1` to `O=C(NCc1cnn(-c2ccc(F)cc2)c1)C1CCC(=O)N(C2CC2)C1` (stereo not shown), the “hERG current change (%, negative = inhibition) at 10uM” value falls from 12.9% to -13.1%.

`COc1ccc(C2(C(=O)Nc3nncs3)CCCC2)cc1` was tested, and the “hERG current change (%, negative = inhibition) at 10uM” value was -14.7%.
